Source: PubChem BioAssay AID588855 (National Center for Advancing Translational Sciences (NCATS), 2011)
Several values for one entry are separate records, joined by “and”; a condition that tells them apart may be missing. Identical values can stand only once. Out of some 410,000 compounds screened, about 5,000 (1.2%) were called active. The inconclusive results got no clear call from the source; some entries with a clear call stand among them for comparison. The call rests on the fitted dose curve; in most records, active means well fitted inhibition curve with a large enough effect; inconclusive means small, poorly fitted or top-dose-only effect; inactive means no such curve, though single readings can be large or run the other way. A potency beside an inconclusive call is a rough fit, not a confirmed value.

Assay: qHTS for Inhibitors of TGF-b; further: nearly all actives have a fitted effect of over 65% in size
Settings: HepG2 CAGA-GFP TGF-b/SMAD3 reporter, GFP fluorescence, 18 h, TGF-beta stimulated, 500 pg/mL final; series mostly up to 46.1 µM
Summary of the method: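 First, reporter cells (HEPG2 CAGA-GFP) rested 2 h at 37 degrees C. Next, compounds were pinned in and TGF-beta added to 500 pg/mL final. After 18 h, GFP was imaged per cell and summed per well.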
Potency means the concentration at half of the fitted maximal effect; tags describe the fitted curve by direction and shape.

Structure (SMILES)	Potency
CCC(C(=O)Nc1cc(F)ccc1F)n1nc(C)c2c(C)n(-c3ccc(C)cc3)nc2c1=O (stereo not drawn)	inconclusive: 10 µM [inhibitor, partial curve, poor fit] and inconclusive: 12.6 µM [inhibitor, single point]
Cc1cccc(N(CC(=O)NC2CCCC2)C(=O)c2csnn2)c1C	inactive
O=C(Nc1cccc(C(F)(F)F)c1)/C(=C/c1ccco1)NC(=O)c1cccs1	inconclusive: 35.5 µM [inhibitor, single point]
Cc1cc(-n2c(C)nc3ccccc3c2=O)ccc1NC(=O)c1ccccc1[N+](=O)[O-]	inconclusive: 35.5 µM [inhibitor, single point]
Cc1nc2ccc(NC(=O)c3cc(S(=O)(=O)N4CCOCC4)ccc3C)cc2s1	inconclusive: 2.51 µM [inhibitor, partial curve, poor fit]
COc1cc(CNC2CCCCCCC2)cc(Br)c1OCC#N	inactive
Cc1ccc(S(=O)(=O)N2CCCC2CNC(=O)C(=O)NCc2cccs2)cc1 (stereo not drawn)	inactive
CCS(=O)(=O)N1Cc2ccccc2CC1C(=O)Nc1nnc(SCc2ccc(F)cc2)s1 (stereo not drawn)	inconclusive: 12.6 µM [inhibitor, single point]
CCCCN1CC(c2nc3ccccc3n2CCCCOc2cccc(C)c2C)CC1=O (stereo not drawn)	inconclusive: 12.6 µM [inhibitor, partial curve, poor fit]
O=C(CCCCCNc1nc(=S)[nH]c2ccccc12)NCCc1ccc(Cl)cc1	inconclusive: 6.31 µM [inhibitor, partial curve]
CCCc1ccc(S(=O)(=O)Nc2ccc(C)c(NS(C)(=O)=O)c2)cc1	inconclusive: 8.91 µM [inhibitor, partial curve, poor fit]
CCOC(=O)c1c(NC(=O)C2C3CCC(O3)C2C(=O)O)sc2c1CCC(CC)C2 (stereo not drawn)	inactive
COc1ccc2c(CNCCc3cccs3)c(C(=O)O)n(Cc3ccc(F)cc3Cl)c2c1	inconclusive: 22.4 µM [inhibitor, partial curve, poor fit]
CCN1C(=O)[C@@H]2[C@@H](c3ccc(-c4ccc5c(c4)OCO5)c(OC)c3)N3CCC[C@@]3(C(=O)OC)[C@@H]2C1=O	inactive
CCn1c(COc2ccccc2C)nnc1SCC(=O)CC(=O)Nc1ccccc1OC	inactive
CC(=O)Nc1ccc(OCc2ccccc2)cc1[N+](=O)[O-]	inactive
Cc1ccc(NC(=O)CSc2ccc3c(c2)OCCO3)c(O)c1	inconclusive: 0.501 µM [inhibitor, full curve, poor fit]
O=C(/C=C\NCC(=O)c1ccccc1)c1ccc(F)cc1	inconclusive: 3.16 µM [inhibitor, single point]
